# Sequences with one replicate were seen in a single cluster, so their values are uncertain.
# System: ATP
# Assay: switch fluorescence ratio, 500 uM ATP over buffer (Cy3 cluster intensity, sum of 5 cycles each) (fold (ratio)); higher = stronger signal-on switching upon ATP binding; sequences stand for … in TCGTCGGCAGCGTCAGATGTGTATAAGAGACAGTTTTTTTTTTTTTTTTTTTTTTTTT…TC
# Conditions: aptamer strand: ATP DNA aptamer (quencher-CACCTGGGGGAGTATTGCGGAGGAAGG + anchor), 100 nM annealed; ATP concentration: 500 uM; one replicate
# How it was run: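 Per cluster, summed Cy3 intensity from the target cycles was divided by that from the buffer cycles to give the fluorescence ratio, then averaged per switch-domain sequence. Clusters outside 100-1000 RFU were excluded. The Cy3-labelled switching-strand clusters, on a modified Illumina MiSeq flow-cell, were annealed to 100 nM quencher-labelled ATP aptamer and imaged in selection buffer, then after 15 min with 500 uM ATP at 22 °C, for five cycles with NaOH stripping and re-annealing between them.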
# 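Also: ATP exposure 15 min at 22 °C before imaging.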
row,Sequence,switch fluorescence ratio
1,GCGAGAGCGA,1.07
2,GCGAGCGAAG,0.977
3,GCGAGTTGTA,1.01
4,GCGATAATGC,1.48
5,GCGATGGCTA,1
6,GCGATGGTTT,0.979
7,GCGCACCGGT,0.96
8,GCGCACGAGT,1.01
9,GCGCAGCG,1.02
10,GCGCATATTA,1.12
11,GCGCCAACCT,1.51
12,GCGCCATTTT,1.01
13,GCGCCGACTT,1
14,GCGCCGGGTC,0.964
15,GCGCGCATG,1.01
16,GCGCGGTTGG,0.994
17,GCGCTAGGCA,1.01
18,GCGCTCAGTA,1
19,GCGCTCCCTT,1.16
20,GCGCTTTTAG,1.04
21,GCGGAAATGA,1.01
22,GCGGAAATGC,1.2
23,GCGGAATGGT,1.09
24,GCGGAATGTT,1.01
25,GCGGACAGTG,0.988
26,GCGGACTACT,1.05

row,Sequence,switch fluorescence ratio
1,GCGGAGCTAG,1.08
2,GCGGAGCTTC,1.24
3,GCGGAGTTTG,0.999
4,GCGGATCCTG,1.02
5,GCGGATGGTC,1.01
6,GCGGCAAAAA,0.981
7,GCGGCCAATC,1.64
8,GCGGCCCTTT,1.01
9,GCGGCCGTCG,0.925
10,GCGGCGCTGA,0.988
11,GCGGCTTCAT,0.994
12,GCGGGATTTT,0.948
13,GCGGGCTAGT,1.01
14,GCGGGGAATG,0.986
15,GCGGGGCATG,0.944
16,GCGGGTAGGA,0.984
17,GCGGGTCCAA,0.976
18,GCGGGTGTCT,0.988
19,GCGGGTTAGG,0.997
20,GCGGTACCAG,1
21,GCGGTACGCA,1.01
22,GCGGTAGC,1.02
23,GCGGTCCTTT,1
24,GCGGTCTGGA,1.02
25,GCGGTTGGTC,1.05
26,GCGGTTGGTG,1

row,Sequence,switch fluorescence ratio
1,GCGTAAATCG,0.955
2,GCGTACAACA,1.04
3,GCGTACACGA,1.02
4,GCGTACGGTC,1.18
5,GCGTACTGCT,0.973
6,GCGTAGATTG,1
7,GCGTAGTA,1.01
8,GCGTATACTC,3.84
9,GCGTATGCAT,1.03
10,GCGTATTACA,1.09
11,GCGTCCATTT,0.969
12,GCGTCTACAA,0.996
13,GCGTCTTTTG,1.07
14,GCGTGAAAAC,1.02
15,GCGTGAATTC,1.06
16,GCGTGAGCAT,1.01
17,GCGTGGATTT,1.03
18,GCGTGTGCTT,0.957
19,GCGTTAGGTC,1.08
20,GCGTTCGGA,1.03
21,GCGTTTCCGA,1.03
22,GCGTTTGGTT,1.01
23,GCGTTTGTAC,1.24
24,GCTAAAAAAG,1.01
25,GCTAAAAGG,1.02
26,GCTAAGGGGG,1.01

row,Sequence,switch fluorescence ratio
1,GCTAATAACA,0.986
2,GCTAATCCGC,1.32
3,GCTAATCTCG,1.04
4,GCTAATCTG,0.962
5,GCTACCGTAG,1.2
6,GCTACCTAAG,1.07
7,GCTACTACTT,1.05
8,GCTACTAGGT,1.01
9,GCTACTTCGC,1.19
10,GCTAGAAACC,1.05
11,GCTAGATGGT,0.965
12,GCTAGCCTAG,1.07
13,GCTAGGAACG,0.99
14,GCTAGGGAGC,0.969
15,GCTAGGGCGC,0.977
16,GCTAGGGTG,1.02
17,GCTAGTCCTG,1.02
18,GCTAGTCTTT,0.976
19,GCTATAAGTC,1.02
20,GCTATAGTCC,3.19
21,GCTATGAGGT,1.02
22,GCTATGGGAA,0.963
23,GCTATTAATA,1.01
24,GCTCAAATAA,1.08
25,GCTCAAATAT,1.05
26,GCTCAATAGA,1.01

row,Sequence,switch fluorescence ratio
1,GCTCAATCAA,1.05
2,GCTCACAATT,1.07
3,GCTCATACGA,2.92
4,GCTCATCTTA,1.03
5,GCTCATGGGG,0.986
6,GCTCATTGTG,0.968
7,GCTCCACGAG,1.07
8,GCTCCGACCT,1.58
9,GCTCCGGCGT,1.38
10,GCTCGATATT,1.01
11,GCTCGATGGA,0.989
12,GCTCGCACTC,2.91
13,GCTCGCCCTC,1.16
14,GCTCGCGATT,1.31
15,GCTCGGCAAA,1.04
16,GCTCGGTTCT,0.982
17,GCTCTCACGC,0.998
18,GCTCTGAAAA,0.982
19,GCTCTGAGAA,1.04
20,GCTCTGCGGT,2.07
21,GCTCTTGAAG,0.976
22,GCTCTTTTCT,0.951
23,GCTGAAAATT,0.978
24,GCTGATTGTT,0.986
25,GCTGATTTAA,0.977
26,GCTGCAGCGT,1

row,Sequence,switch fluorescence ratio
1,GCTGCCCGGG,1.02
2,GCTGCGCGCT,1.03
3,GCTGCGGGGC,0.977
4,GCTGCGTGGC,1.03
5,GCTGCTGTTA,0.989
6,GCTGGAATAG,1.21
7,GCTGGAATCT,1.02
8,GCTGGCAGCT,0.984
9,GCTGGCTCGG,0.96
10,GCTGGGAAGT,0.956
11,GCTGGGCAAA,0.968
12,GCTGGGGTCC,1.01
13,GCTGGGTCCG,0.955
14,GCTGGTAAGG,0.988
15,GCTGTAGTTA,1.02
16,GCTGTATTTT,1.01
17,GCTGTCAACA,1
18,GCTGTCCTAA,0.974
19,GCTGTGGCTG,0.979
20,GCTGTGTATT,0.994
21,GCTGTGTCTC,0.99
22,GCTGTGTGAA,0.963
23,GCTTACAATA,1.03
24,GCTTACCGTT,0.97
25,GCTTACGGCA,0.964
26,GCTTAGACTC,1.07

row,Sequence,switch fluorescence ratio
1,GCTTAGCAGG,0.976
2,GCTTATAC,2.57
3,GCTTCATCAC,1.16
4,GCTTCATCGG,1.21
5,GCTTCCACGA,1.15
6,GCTTCCGGTT,1.24
7,GCTTCGCGTG,1.05
8,GCTTCTAGAT,0.997
9,GCTTCTGTGC,1
10,GCTTCTTAAT,0.995
11,GCTTGAAAGA,1.02
12,GCTTGATGCG,1.01
13,GCTTGCCAGG,1.09
14,GCTTGGAATA,1.09
15,GCTTGGCGGC,0.998
16,GCTTGGGGT,0.99
17,GCTTGGTAGG,0.991
18,GCTTGGTAT,0.968
19,GCTTGGTTCC,1.12
20,GCTTGTCATC,0.997
21,GCTTTAGCGT,0.974
22,GCTTTCATTC,1.03
23,GCTTTCCCCA,1.08
24,GCTTTCGACG,1.07
25,GCTTTGAAGA,0.992
26,GCTTTGAAGT,0.945

row,Sequence,switch fluorescence ratio
1,GCTTTGACA,0.97
2,GCTTTGGAGG,1
3,GCTTTGTATT,0.998
4,GCTTTTATCT,0.999
5,GCTTTTCCTC,1.08
6,GGAAAAACGG,1.11
7,GGAAAACAAT,0.978
8,GGAAAACGTA,0.995
9,GGAAAAGCAT,0.959
10,GGAAAATTT,1.02
11,GGAAACCTGA,3.49
12,GGAAACGT,1.09
13,GGAAAGACAT,1.03
14,GGAAAGAGAT,1.03
15,GGAAAGCAGC,1.04
16,GGAAATCGGC,1.12
17,GGAAATTTT,0.995
18,GGAACGGAGC,1.01
19,GGAACTAGCA,1.03
